Measured values: the supplement of paper PMC3334620
Over roughly 33,000 sequences, “E-score (-0.5 to 0.5)” has its median near -0.054; the highest 2% begin near 0.35. The list shows a part of the results.

Target: T1, Stb5 (UniProt P38699)
T1 sequence: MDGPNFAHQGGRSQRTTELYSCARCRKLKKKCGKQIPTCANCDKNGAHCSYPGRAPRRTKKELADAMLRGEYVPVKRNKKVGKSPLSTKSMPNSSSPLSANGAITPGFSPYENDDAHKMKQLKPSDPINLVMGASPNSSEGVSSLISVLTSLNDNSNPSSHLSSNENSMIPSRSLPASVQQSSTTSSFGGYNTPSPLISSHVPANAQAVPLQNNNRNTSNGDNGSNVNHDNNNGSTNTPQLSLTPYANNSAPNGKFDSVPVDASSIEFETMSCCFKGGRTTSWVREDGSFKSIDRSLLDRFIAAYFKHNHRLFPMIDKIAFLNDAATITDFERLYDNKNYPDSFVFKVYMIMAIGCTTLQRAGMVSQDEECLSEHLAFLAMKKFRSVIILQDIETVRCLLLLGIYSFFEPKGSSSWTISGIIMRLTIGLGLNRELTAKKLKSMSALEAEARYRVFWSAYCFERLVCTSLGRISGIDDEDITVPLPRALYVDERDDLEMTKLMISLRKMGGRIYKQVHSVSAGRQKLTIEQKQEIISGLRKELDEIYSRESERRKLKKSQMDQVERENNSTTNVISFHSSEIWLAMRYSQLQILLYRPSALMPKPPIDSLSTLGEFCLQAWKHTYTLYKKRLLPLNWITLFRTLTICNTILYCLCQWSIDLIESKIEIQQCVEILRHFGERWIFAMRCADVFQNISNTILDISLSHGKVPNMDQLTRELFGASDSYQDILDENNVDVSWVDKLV
Experiment: PBM E-score (8-mer binding enrichment) (E-score (-0.5 to 0.5)); higher = stronger / more preferred TF binding; most listed sequences are background and not binding sites
Conditions: protein concentration: 200 nM; construct: GST-full length
In short: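 Full-length yeast transcription factors or their DNA-binding domains, GST-tagged and expressed with PURExpress, were applied at about 100-200 nM to universal all-10-mer Agilent arrays. These arrays had been made double-stranded by primer extension on fresh or once-stripped slides. Detection used fluorescent anti-GST, normalisation used masliner, and E-scores for ungapped eight-base words pooled with reverse complements came from the Universal PBM Analysis Suite.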

Row | Sequence | PBM E-score
1 | CTCCTCCC | -0.231
2 | ACCCCCGT | 0.365
3 | CCTTACGC | -0.11
4 | AATTACTA | 0.0188
5 | CATATTAC | 0.225
6 | GCTGAAAC | 0.0803
7 | AGTTGCTG | -0.167
8 | CATACTCC | 0.0644
9 | CGCATAAG | 0.138
10 | AAGATACG | -0.0742
11 | AATGCTGG | -0.101
12 | ACGGGGCA | 0.159
13 | AGACTCGC | -0.209
14 | CCCGCGGA | 0.322
15 | ATTCTGGG | -0.294
16 | AAACCAAG | -0.116
17 | GACAGCTA | -0.221
18 | ATGAGTCG | -0.153
19 | AGGACGTA | -0.182
20 | GGTCGGAA | 0.251
21 | AAAACAGG | -0.204
22 | CAGTCAAC | -0.188
23 | ATGCACAG | -0.234
24 | AATGTCAA | -0.134
25 | AGACAACC | 0.0442

Row | Sequence | PBM E-score
26 | CAGTTTTC | -0.207
27 | AGCCTGAG | -0.266
28 | CATTAAGA | -0.122
29 | TATGCAGA | -0.106
30 | GGGCTCTA | -0.028
31 | AGCAGCCC | -0.196
32 | ACATAAAG | -0.0845
33 | CCCATCGA | -0.0921
34 | CGATACCG | 0.242
35 | AAGTAGGA | -0.333
36 | ACAGGTTC | -0.29
37 | ACTTGCTA | -0.204
38 | GTAAGTGA | -0.111
39 | CGATATGA | -0.0444
40 | AACTTCAG | -0.178
41 | AGGAGTTC | -0.17
42 | GTGATTGA | 0.111
43 | CGCAAACC | -0.0638
44 | GGTTGAAA | -0.0535
45 | AAGTGTAC | -0.243
46 | AAACCCGA | 0.395
47 | ACCTGCTG | -0.155
48 | AAGGAAGA | -0.0247
49 | CCCATGTA | -0.0266
50 | CGCGAGAC | -0.22

Row | Sequence | PBM E-score
51 | AGGCATGC | -0.15
52 | GGCCTCTA | -0.0646
53 | GAGATAGA | -0.0381
54 | TCCATGGA | 0.0702
55 | AAATGCAC | -0.00345
56 | TATGCCCA | -0.123
57 | ATCAAGTG | -0.117
58 | TAGTGTAA | -0.0184
59 | CCATATTA | -0.102
60 | CCCTGAGC | -0.0481
61 | ACTTCACC | 0.063
62 | AGCTTATA | -0.0809
63 | CATTGGAA | 0.0761
64 | ACCATCAG | 0.0204
65 | CAAAGTAG | -0.164
66 | AATCTCCA | 0.0536
67 | CGGGGGAC | 0.136
68 | ACTATAGG | -0.197
69 | AGGCAGAC | 0.0225
70 | GACTTCTA | -0.177
71 | ACTCGACT | -0.224
72 | CCTAAGTC | 0.00031
73 | AGTGAAAT | -0.257
74 | ACGGTGGA | 0.0329
75 | GAGCCCAC | -0.101

Row | Sequence | PBM E-score
76 | CCTGAACA | 0.00453
77 | CTGGCCTC | -0.252
78 | CCTCTAAG | -0.195
79 | GGGCGTAA | 0.156
80 | ATACGTAC | -0.0769
81 | ATTACAGA | 0.0315
82 | AAGAAGTG | -0.136
83 | CGTTCATC | 0.0696
84 | CATGTCTC | 0.148
85 | CAAGGTAC | -0.205
86 | CGTCTGAG | 0.0237
87 | ATAATTGC | 0.209
88 | CAACGTAA | -0.18
89 | CGATAAGA | -0.0622
90 | AGAGTTGG | -0.275
91 | GGTGGCAA | -0.0431
92 | CCCCCGTA | 0.063
93 | GTCGGGAA | 0.289
94 | TACTTCAA | -0.181
95 | CTACTGAA | -0.167
96 | CGGGCAAG | 0.004
97 | CCTACCTC | -0.101
98 | ATGACCCA | -0.309
99 | CCCATAGC | -0.129
100 | CTATATTA | 0.158

Row | Sequence | PBM E-score
101 | CCCTGGAG | -0.234
102 | ATTGTAGG | -0.231
103 | AGGGGACA | -0.232
104 | CCAAATTC | -0.154
105 | GGGGCGTA | 0.0321
106 | CCGGCTGA | 0.0822
107 | CACTACCG | 0.019
108 | ACTTTGTC | -0.145
109 | CCAGCTCA | -0.343
110 | ATTGACCG | 0.255
111 | CCCAGATA | -0.137
112 | ATCTTATA | -0.076
113 | ACCATTCA | -0.173
114 | ACAGCCGC | 0.165
115 | CAACGCGG | 0.194
116 | ATAGAGTA | -0.0125
117 | TCGACACA | -0.0901
118 | GGTGCGAA | 0.259
119 | GGTTCAAC | 0.00115
120 | AAGATAGT | -0.107
121 | GAACACGA | -0.214
122 | ACAAGCCG | 0.0342
123 | CACTACTG | -0.269
124 | GAAGGCCA | -0.142
125 | AATAACAA | -0.0395

Row | Sequence | PBM E-score
126 | CCAAGCCA | -0.174
127 | AAGAAAAG | -0.108
128 | TCGTACAA | -0.211
129 | TCCGGTCA | 0.325
130 | AATGTGCT | -0.0738
131 | AGGGCCTA | 0.0959
132 | CTGGCATC | -0.226
133 | ACGCTTTC | -0.205
134 | AATCCGCA | 0.156
135 | CTGGCGTA | -0.209
136 | CTATGGTC | -0.0974
137 | AAGGTATC | -0.0144
138 | ATACACGC | -0.0452
139 | ATCGGGTG | 0.155
140 | CTGCCCCA | -0.0669
141 | GCTATGAA | -0.0586
142 | GAAACTAA | -0.0553
143 | ATTGTACG | -0.218
144 | GTCCAGTA | 0.0107
145 | AACACAAT | -0.221
146 | CGCGCAAA | 0.0122
147 | AAGGGCCA | -0.312
148 | TCCACTAA | 0.0397
149 | CGCCCGAG | 0.129
150 | ATAACATA | 0.136

Row | Sequence | PBM E-score
151 | ACTGCGTA | -0.0892
152 | CTGGGTAA | -0.162
153 | ACTCCTAA | -0.184
154 | AATGGCCA | -0.173
155 | AGCTTTCA | -0.131
156 | ACCCCGAT | 0.441
157 | AAGTGCTA | -0.112
158 | CGACGGTC | 0.315
159 | GGTTGGAC | -0.0385
160 | CAAACAGC | 0.0778
161 | AGCGTCGA | -0.188
162 | CACCTTGC | -0.217
163 | TGGCTACA | -0.144
164 | AAGGGAGA | -0.357
165 | CAAACAAA | -0.202
166 | GATCATGA | 0.0141
167 | CTCATCAC | -0.162
168 | GCTGCATA | -0.136
169 | GCCGTTAC | 0.247
170 | CTCCTGTC | -0.26
171 | ATAAGGAG | 0.0498
172 | GGTGGCAC | 0.0756
